# PubChem BioAssay AID2100 (National Center for Advancing Translational Sciences (NCATS), 2009)
# Hit rate of the full screen: of about 300,000 compounds, about 1,200 (0.4%) were called active. The shares of active, inactive and inconclusive entries below differ from those in the screen. Calls follow the shape of the dose curve; as a rule, active = well fitted inhibition curve with a large enough effect; inconclusive = small, poorly fitted or top-dose-only effect, or another doubt; inactive = no such curve, though single readings can be large or run the other way. Potencies beside an inconclusive call are fits to weak or partial responses and may not hold up.
# Target: Lysosomal alpha-glucosidase (Homo sapiens) (UniProt P10253)
# Assay: qHTS Assay for Inhibitors and Activators of Human alpha-Glucosidase Cleavage of Glycogen;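 as to activity change, negative = inhibition: 0% = full enzyme reaction and -100% = no-enzyme basal signal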
# Conditions: recombinant GAA, glycogen substrate, Amplex Red glucose oxidase fluorescence; activity change, negative = inhibition: at 76.4 µM (top of the series) unless noted
# Summary of the method: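 Recombinant human enzyme (4 nM); glycogen substrate; 37 C, 40 min, pH 5.0. Readout: coupled glucose oxidase/Amplex Red fluorescence.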
# Potency is read from the fitted curve at half-maximal effect.
Compound,Potency,"activity change, negative = inhibition"
CCN(CC)c1ccc(/C=N/Nc2nc(C)cc(=O)[nH]2)cc1,"inconclusive: 3.14 µM [inhibitor, full curve]",
CCOC(=O)C1=C(C)NC(SCC(N)=O)=C(C#N)C1c1cccs1 (stereo not given),,inactive: 2.27%
NNc1nc2c(Cl)cccc2s1,"inconclusive: 4.47 µM [inhibitor, full curve]",
COc1ccc(CNc2oc(-c3ccc(COc4ccc(Cl)cc4)o3)nc2C#N)cc1,"inconclusive: 44.7 µM [inhibitor, partial curve]",
COc1ccccc1NC(=S)NCCc1ccc(F)cc1,"inconclusive: 44.7 µM [inhibitor, partial curve]",
COc1ccc(-c2cc(C(F)(F)F)nc(SCC(=O)N(C)Cc3ccccc3)n2)cc1OC,,inactive: 7.48% [at 76.3 µM]
Cc1cccc(Nc2cc(C)c3c(O)cccc3n2)c1C,active: 10 µM,
Cc1cc(N=Nc2ccccc2C(=O)O)c(C)c(C)c1O,"inconclusive: 28.2 µM [inhibitor, partial curve]",
C=C(C)/C=N/NC(=S)Nc1ccc(S(=O)(=O)N2CCOCC2)cc1,active: 25.1 µM,
O=c1[nH]c2ccccc2c2nc3ccccn3c12,,inactive: -0.372%
Cc1ccccc1NC(=S)Nc1cccc2cnccc12,,inactive: -9.94%
N#Cc1c(/N=C\c2ccc(O)c([N+](=O)[O-])c2)sc2c1CCCC2,"inconclusive: 28.2 µM [inhibitor, partial curve]",
CCN(CC)CCCNC(=O)c1ccc2nc(N3CCCCC3)sc2c1,"inconclusive: 50.1 µM [inhibitor, single point]",
Cc1[nH]c2ccccc2c1/C=N/Nc1nc(Nc2ccc(F)cc2)nc(N2CCOCC2)n1,"inconclusive: 28.2 µM [inhibitor, partial curve]",
NNc1nc(Nc2ccc([N+](=O)[O-])cc2)nc(N2CCCCCC2)n1,"inconclusive: 50.1 µM [inhibitor, single point]",
Cc1[nH]n(C(C)(C)C)c(=O)c1Sc1ccc(Cl)cc1,"inconclusive: 31.6 µM [inhibitor, partial curve]",
CCOc1cc(/C=N\NC(=O)Cn2nnc3ccccc32)ccc1O,"inconclusive: 14.1 µM [inhibitor, partial curve]",
O=C(NNC(=S)NC(=O)c1cccnc1)c1ccc(F)cc1,"inconclusive: 44.7 µM [inhibitor, single point]",
COc1ccc(O)c(-c2c(-c3ccc(Cl)cc3)n[nH]c2C)c1,active: 10 µM,
CC(=O)OCC1(C)CN(c2ccccc2)N(C(C)=O)C1=O (stereo not given),"inconclusive: 35.5 µM [inhibitor, single point]",
CCOC(=O)C(=NC1CCCCC1)NNc1cccc(C(F)(F)F)c1,"inconclusive: 28.2 µM [inhibitor, partial curve]",
Cc1ccc(C)c(NC(=O)CCC(=O)NNC(=S)Nc2ccccc2)c1,"inconclusive: 10 µM [inhibitor, partial curve]",
C/C(=N\Nc1cc(N2CCOCC2)nc(C)n1)c1ccc(F)cc1,"inconclusive: 28.2 µM [inhibitor, single point]",
Cc1c(NCc2cc(Cl)ccc2O)c(=O)n(-c2ccccc2)n1C,active: 12.6 µM,

Compound,Potency,"activity change, negative = inhibition"
O=C(c1ccc(Cl)cc1)N1CCN(c2cccc3[nH]ccc23)CC1,"inconclusive: 5.62 µM [inhibitor, full curve, poor fit]",
C/C(=C\C(=O)c1ccccc1)NNC(=O)c1ccc(Cl)cc1,"inconclusive: 50.1 µM [inhibitor, partial curve, poor fit]",
CC(C)c1ccc(NC(=S)NN(c2ccccc2)c2ccccc2)cc1,"inconclusive: 22.4 µM [inhibitor, partial curve]",
COc1ccccc1N1C(=O)C(Cl)=C(Nc2ccccc2O)C1=O,"inconclusive: 14.1 µM [inhibitor, partial curve]",
O=C(N/N=C/C1CC=CCC1)c1ccccc1O (stereo not given),active: 31.6 µM,
CC(C)CNc1oc(-c2ccco2)nc1C#N,"inconclusive: 50.1 µM [inhibitor, single point]",
COc1cc(CNc2ccc3[nH]c(=O)[nH]c3c2)cc(Cl)c1OCc1ccccc1F,,inactive: -29.3% [at 76.3 µM]
CCOC(=O)c1c(NS(=O)(=O)Cc2ccccc2)sc2c1CCCC2,"inconclusive: 31.4 µM [inhibitor, single point]",
Cc1nn(-c2cccc(Cl)c2)c2c1C(c1ccncc1)C(C#N)=C(N)O2 (stereo not given),"inconclusive: 24.9 µM [inhibitor, partial curve]",
O=C(CCc1ccccc1)c1c(O)cc(O)cc1O,"inconclusive: 39.8 µM [inhibitor, partial curve]",
CCOc1ccc(N(CC(=O)Nc2ccc(CC)cc2)S(=O)(=O)c2c(C)[nH]c(=O)[nH]c2=O)cc1,,inactive: -17.8% [at 76.3 µM]
c1cc(CNc2ccc3c(c2)OCCO3)ccn1,"inconclusive: 39.5 µM [inhibitor, partial curve]",
S=C1NCCc2ccc(Cl)cc2C1c1ccccc1Cl (stereo not given),"inconclusive: 50.1 µM [inhibitor, single point]",
CCOC(=O)/C(C#N)=N/Nc1c(C)n(C)n(-c2ccccc2)c1=O,"inconclusive: 5.01 µM [inhibitor, full curve]",
CCOc1cc(N2CCOCC2)c(OCC)cc1NC(C)C(=O)N1CCC(C)CC1 (stereo not given),"inconclusive: 28 µM [inhibitor, single point]",
COc1ccc(-n2c3c(cc(C(=O)NNc4ccccc4C)c2=O)C(=O)CC(C)(C)C3)cc1,"inconclusive: 6.31 µM [inhibitor, single point]",
COc1ccccc1/C=N/N1CCN(Cc2ccccc2Cl)CC1,"inconclusive: 39.8 µM [inhibitor, partial curve]",
Nc1ccc2nc(CN3CCOCC3)[nH]c2c1,,inactive: 0.403%
Cc1ccc(N2C(=O)CC(Cc3ccc(Cl)cc3)C2=O)cc1 (stereo not given),,inconclusive: -37.9% [inhibitor] [at 0.611 µM]
c1ccc2sc(NN=C3CCCCCC3)nc2c1,"inconclusive: 20 µM [inhibitor, partial curve]",
CCNc1ccc(S(=O)(=O)N(C)C)cc1NCC(=O)Nc1ccccc1Br,"inconclusive: 14.1 µM [inhibitor, partial curve]",
COc1ccc(-c2nc(N=Nc3ccc(O)cc3)n[nH]2)cc1,,inactive: 5.65%
Cc1ccccc1Nc1c(-c2cccnc2)nc2ccccn12,"inconclusive: 12.5 µM [inhibitor, partial curve]",
Nc1cnc(Nc2ccc(Br)cc2)nc1N,active: 7.03 µM,

Compound,Potency,"activity change, negative = inhibition"
CCOC(=O)c1ccc(N2C(=O)C(CC(N)=O)N(NC(=O)c3cccc(F)c3)C2=S)cc1 (stereo not given),"inconclusive: 31.6 µM [inhibitor, single point]",
COc1cc(/C=N/Nc2ccccc2)ccc1O,"inconclusive: 25.1 µM [inhibitor, partial curve]",
O=C(NN=C1C2CC3CC(C2)CC1C3)c1cc(Cl)ccc1O,active: 12.6 µM,
CC(CC(=O)O)Nc1ccccc1O (stereo not given),"inconclusive: 3.16 µM [inhibitor, full curve]",
CCOc1cc(/C=N/NC(=O)COc2ccc(C)cc2)ccc1OC(=O)c1cccs1,"inconclusive: 39.8 µM [inhibitor, partial curve, poor fit]",
O=C1C2=C(Nc3ccccc3SC2c2ccccc2C(F)(F)F)c2ccccc21 (stereo not given),,inactive: -5.63% [at 76.3 µM]
CCn1c(C)nc2cc(C(=O)NNS(=O)(=O)c3ccccc3F)ccc21,"inconclusive: 35.2 µM [inhibitor, partial curve]",
Cc1[nH]c(=S)c(C#N)c(C)c1C(=O)Nc1ccccc1,"inconclusive: 25.1 µM [inhibitor, partial curve]",
CCC(=O)c1ccc(OCC(O)Cn2nnc3ccccc32)cc1 (stereo not given),"inconclusive: 11.2 µM [inhibitor, single point]",
O=C1C(Nc2cccc(O)c2)=C(N2CCCCC2)C(=O)c2ccccc21,"inconclusive: 39.5 µM [inhibitor, single point]",
COC(=O)c1cnc(NNS(=O)(=O)c2ccc(C(F)(F)F)cc2)nc1C(F)(F)F,"inconclusive: 14.1 µM [inhibitor, partial curve]",
CN1CCC/C1=C/C=C1\SC(=S)NC1=O,"inconclusive: 5.62 µM [inhibitor, full curve]",
CC(C)C(c1nnnn1Cc1ccc(F)cc1)N1CCN(c2ccc(O)cc2)CC1 (stereo not given),active: 7.03 µM,
Cc1cc(NC(=O)c2c(F)cccc2Cl)no1,,inactive: 4.27%
CCCCNCC(=O)Nc1sc(C)c(C)c1C(=O)OCC,"inconclusive: 35.5 µM [inhibitor, single point]",
CCCCOC(=O)C1=C(N)N2C(=O)C(C)SC2=C(C(=O)OCC)C1c1ccc(O)c(OC)c1 (stereo not given),"inconclusive: 28.2 µM [inhibitor, single point]",
Clc1cccc(Cl)c1C1Nc2cccc3cccc(c23)N1,"inconclusive: 50.1 µM [inhibitor, single point]",
Cc1cc(Cl)ccc1NNC(=O)c1c(C)noc1C,"inconclusive: 10 µM [inhibitor, partial curve]",
CCOC(=O)C(=O)NNc1ccccc1C,"inconclusive: 4.47 µM [inhibitor, full curve]",
O=C1C=C(NNC(=O)c2ccccc2Br)CCC1,"inconclusive: 39.8 µM [inhibitor, single point]",
COc1cccc(C2=NO[C@@H]3C(=O)N(Cc4ccccc4)C(=O)[C@H]23)c1OC,"inconclusive: 15.7 µM [activator, partial curve, poor fit]",
CCOc1cc(C(c2c(C)[nH][nH]c2=O)c2c(C)[nH][nH]c2=O)ccc1OS(=O)(=O)c1ccccc1,"inconclusive: 17.6 µM [inhibitor, partial curve]",
